Laboratory results as given in PubChem BioAssay AID1768 (National Center for Advancing Translational Sciences (NCATS), 2009).
The whole screen tested about 270,000 compounds, of which about 620 (0.23%) were called active. Inconclusive means that the source gave no clear call. Such entries were picked first, then a sample of the others. Calls come from the whole dose curve; as a rule, active = well fitted inhibition curve with a large enough effect in the polarisation, with a control signal flat (not every such curve was filed as active); inconclusive = small, poorly fitted or top-dose-only effect, or effect the other way, or a change in a side signal; inactive = no such curve, though single readings can be large or run the other way; the % refers to the polarisation. A potency beside an inconclusive call is a rough fit, not a confirmed value. “Side channel” marks fits to a control or component signal instead of the main read-out.

The compounds below were run against Menin (Homo sapiens) (UniProt O00255) (assay: qHTS Assay for Inhibitors Targeting the Menin-MLL Interaction in MLL Related Leukemias: Competition With Texas Red Labeled MLL-derived Mutant Peptide). Conditions: fluorescence polarization; series mostly up to 61.6 µM.
Potency is the fitted concentration of half-maximal effect; tags give direction and shape of the fitted curve or compound fluorescence and quenching.

Sequence of UniProt O00255 (O00255 whole entry, looked up): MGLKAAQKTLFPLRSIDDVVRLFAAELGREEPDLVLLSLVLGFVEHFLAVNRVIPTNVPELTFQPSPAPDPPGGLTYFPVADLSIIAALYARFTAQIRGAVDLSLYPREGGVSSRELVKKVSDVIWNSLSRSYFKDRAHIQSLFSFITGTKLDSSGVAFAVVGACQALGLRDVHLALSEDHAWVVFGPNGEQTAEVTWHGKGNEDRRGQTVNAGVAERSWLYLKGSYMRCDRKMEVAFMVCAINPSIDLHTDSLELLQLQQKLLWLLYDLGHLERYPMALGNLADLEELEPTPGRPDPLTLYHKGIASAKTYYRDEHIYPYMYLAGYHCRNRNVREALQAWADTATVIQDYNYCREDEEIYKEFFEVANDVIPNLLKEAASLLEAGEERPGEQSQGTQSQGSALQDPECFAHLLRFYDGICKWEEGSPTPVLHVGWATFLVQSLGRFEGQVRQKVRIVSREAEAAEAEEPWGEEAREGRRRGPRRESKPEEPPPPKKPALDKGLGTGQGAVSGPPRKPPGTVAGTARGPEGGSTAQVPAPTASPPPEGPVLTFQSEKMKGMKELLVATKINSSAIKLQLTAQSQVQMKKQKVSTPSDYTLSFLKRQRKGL

Potency, inactive:
CN(C)c1ccc(N=Nc2ccccc2C(=O)OCC(=O)N(C)c2ccccc2)cc1, CCOC(=O)Cc1csc(Nc2c(C)n(C)n(-c3ccccc3)c2=O)n1, OC1(c2ccc(Cl)c(C(F)(F)F)c2)CCN(CCCC(c2ccc(F)cc2)c2ccc(F)cc2)CC1, C=CCNC(=O)/C(C#N)=C/c1ccc2c(c1)OCCO2

Potency, inconclusive:
Cc1ccc(C(=O)c2ccccc2C(=O)OCC(=O)NC(=O)NC(C)(C)C)cc1 7.94 µM [fluorescent, side channel, full curve, poor fit], Fc1ccc(COc2cccc3cccnc23)cc1 22.4 µM [inhibitor, partial curve, poor fit], CCOc1ccccc1NC(=O)c1ccc(F)c(S(=O)(=O)N2CCC3(CC2)OCCO3)c1 5.01 µM [inhibitor, single point], CC(=O)Nc1ccc(NC2=C/C(=N/S(=O)(=O)c3cccs3)c3ccccc3C2=O)cc1 11.2 µM [quencher, side channel, partial curve], Cc1cc(N2CCCC2)ccc1/C=C1\NC(=S)N(C)C1=O 3.98 µM [quencher, side channel, partial curve], Cc1cc(NCCCN)nc(-c2ccccc2O)n1 28.2 µM [quencher, side channel, single point], COc1ccc(-n2c(C)cc(/C=C/c3nc(O)c([N+](=O)[O-])c(=O)[nH]3)c2C)cc1 15.8 µM [quencher, side channel, single point], O=C(Nc1ccc(C(=O)N2CCOCC2)cc1)c1cc(-c2cccnc2)nc2ccc(Cl)cc12 39.8 µM [quencher, side channel, single point], CCOc1ccc(NC(=O)c2nn(C)c(C(=O)Nc3ccc(OCC)cc3)c2[N+](=O)[O-])cc1 31.6 µM [fluorescent, side channel, single point], CCOC(=O)C1CCN(c2nc(C)cc(C)c2C#N)CC1 7.94 µM [fluorescent, side channel, partial curve], Cc1ccc(S(=O)(=O)Nc2cc(C(=O)N3CCOCC3)ccc2N2CCCCC2)cc1 31.6 µM [fluorescent, side channel, partial curve], Cc1ccccc1-n1c(SCc2c(C)noc2C)nnc1-c1cccnc1 28.2 µM [inhibitor, single point], Cc1cc(C)c2[nH]c(=O)c(CN(Cc3cccs3)C(=S)NCc3ccco3)cc2c1 35.5 µM [inhibitor, single point], O=C(NC(=S)N1CCCc2ccccc21)c1ccc(Cl)cc1 1.58 µM [inhibitor, full curve], C=CCOc1ccc(/C=N/NC(=O)c2cc3c(OC)cc(OC)cc3[nH]2)cc1 4.47 µM [quencher, side channel, full curve], CCOC(=O)C1=C(N)Oc2cc(O)ccc2C1c1cccc([N+](=O)[O-])c1 (stereo not given) 14.1 µM [quencher, side channel, partial curve], COc1ccc(CN(C)C(=O)c2cccc(C(=O)N(C)Cc3ccc(OC)cc3)c2)cc1 31.6 µM [inhibitor, partial curve], NCC12CC3CC(C1)CC(c1ccc(Cl)cc1)(C3)C2 17.8 µM [fluorescent, side channel, partial curve], Cc1nc2ccc(NC(=O)COc3ccccc3F)cc2s1 39.8 µM [fluorescent, side channel, single point], CN(C)c1ccc(CNCCC(Cc2ccccc2)c2ccco2)cc1 (stereo not given) 3.16 µM [fluorescent, side channel, full curve, poor fit], Cc1ccc(NC(=O)CCCn2nc(C)c3c(C)n(-c4ccccc4)nc3c2=O)c(Cl)c1 31.6 µM [fluorescent, side channel, single point], CCOC(=O)c1ccc(Nc2cc(C)nc(-c3ccccc3O)n2)cc1 3.55 µM [quencher, side channel, full curve], CCNC(=O)NC(=O)C(C)OC(=O)c1ccc(SC)cc1OC (stereo not given) 4.47 µM [fluorescent, side channel, full curve, poor fit], CNC(=O)c1ccc(Nc2nc(-c3ccccc3)nc3ccccc23)cc1 10 µM [quencher, side channel, partial curve], CCc1cc2ccc(C)c(C)c2nc1SCC(=O)NNC(=O)c1ccco1 39.8 µM [fluorescent, side channel, single point], Fc1ccc(-c2nc(-c3cccs3)[nH]c2-c2ccc(F)cc2)cc1 7.94 µM [quencher, side channel, full curve], O=[N+]([O-])c1ccc(O)c(-c2cc(C(F)(F)F)nc(-c3ccccc3)n2)c1 5.01 µM [quencher, side channel, single point], Cc1c(C)c2c(OCC(=O)NCc3ccco3)cc3c(c2oc1=O)CCC(C)(C)O3 28.2 µM [inhibitor, partial curve], CCOC(=O)c1[nH]c(C)c(CN(C(C)=O)c2ccc(OCC)cc2)c1C 12.6 µM [fluorescent, side channel, partial curve], Clc1ccc(N2N=C(c3cccs3)CC2c2ccco2)cc1 (stereo not given) 12.6 µM [quencher, side channel, partial curve], Cc1cccc(C)c1Nc1nnc(SC/C(O)=C(\C#N)c2nc3ccccc3[nH]2)s1 25.1 µM [quencher, side channel, single point]
